Results on 77 molecules are retold here after PubChem BioAssay (NCI).

The structures appear in SMILES notation.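 A five-concentration, 48-hour dose response in 96-well plates underlies each endpoint, interpolated linearly between surrounding concentrations. GI50 is the concentration that inhibits growth by half. TGI is the concentration that stops growth completely.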

The subject of the assay is NCI-H322M lung. Nature of the assay: NCI tumour cell line growth inhibition, 48 h.
`CC(=O)C1COC(O)C1C` (stereo not drawn): the TGI is greater than 100 µM.

The molecule `Cc1cc2c(c(C(=O)NCCC(=O)N[C@@H](C)C(=O)OCc3ccccc3)c1)Oc1c(cc(C)cc1C(=O)NCCC(=O)N[C@@H](C)C(=O)OCc1ccccc1)S2` had a TGI greater than 100 µM.

`CCOC(=O)Cn1nnc2cc(Nc3nc4ccccc4nc3C(=O)OCC)ccc21` gave a TGI greater than 100 µM.

As to `Cc1ccc(C(=O)/C(=C\c2ccc([N+](=O)[O-])cc2)S(=O)Cc2ccc(F)cc2)cc1` (stereo not drawn), the GI50 is 1.78 µM and the TGI was 4.44 µM.

Take `O=C(O)c1ccc([S-])cc1.[Au+].c1ccc(CN2[CH-]N(Cc3ccccc3)C(c3ccccc3)=C2c2ccccc2)cc1`: the GI50 was 0.393 µM and the TGI stood at 1.72 µM.

With `COc1cc2c(cc1OC)-c1ccc3cc4c(cc3c1N(CCN(C)C)C2)OCO4`, the GI50 is 1.61 µM and the TGI was found to be 5.23 µM.

With `C/C(CC(=O)Nc1ccc(Cl)cc1)=N\NC(=O)C[n+]1ccccc1`, the TGI was greater than 100 µM.

Regarding `CCC(=O)C(C)C(=O)C(=O)C(=O)OC` (stereo not drawn), the TGI was greater than 100 µM.

Molecule `NNC(=O)CCC(NS(=O)(=O)c1ccc(Cl)cc1)C(=O)NN` (stereo not drawn) registered a TGI greater than 100 µM.

The molecule `COc1ccc(OC)c(NCC#N)c1` gave a TGI greater than 100 µM.

`NC(=O)C[C@H](NC(=O)C1(NC(=O)[C@H](Cc2ccc(CP(=O)(O)O)cc2)NC(=O)C(=O)O)CCCCC1)C(=O)NCCCc1cccc2ccccc12` returned a TGI greater than 10 µM.

As to `CCn1c2ccc(C(=O)CCCN(C)C)cc2c2cc(C(=O)CCCN(C)C)ccc21`, the TGI came out at 5.39 µM.

In the case of `Fc1cccc(CSc2ncnc3c2ncn3C2CCCS2)c1` (stereo not drawn), the TGI is greater than 100 µM.

`O=C(Nc1ccc2[nH]c(C(=O)N3CC(CCl)c4c3cc([N+](=O)[O-])c3ccccc43)cc2c1)c1cc2ccccc2o1` (stereo not drawn): the GI50 is greater than 1100 µM and the TGI was greater than 1100 µM.

Regarding `CCCC(=O)Nc1cc(/C=C/C(=O)N2CC(CCl)c3c2cc([N+](=O)[O-])c2ccccc32)n(C)c1` (stereo not drawn), the TGI was greater than 100 µM.

With `O=C(O)c1ccc2c3c(ncnc13)-c1ccccc1C2=O`, the GI50 is 2.25 µM and the TGI was found to be 5.56 µM.

`Clc1ccc(C(c2ccc(Cl)cc2)N2CCNCC2)cc1`: the TGI stood at 8.49 µM.

With `Clc1ccc(/C=N/Nc2nnc3c4ccccc4c4ncccc4c3n2)cc1`, the TGI is greater than 10 µM.

`CSc1nc(SC)c2c(C(N)=S)[nH]nc2n1` returned a TGI greater than 100 µM.

`C=CCCC(On1c(-c2ccc(Cl)cc2)csc1=S)c1ccccc1` (stereo not drawn) showed a TGI greater than 100 µM.

For the molecule `COc1cc(O)c2c(=O)c(OC)c(-c3ccc4c(c3)OCO4)oc2c1OC`, the TGI is greater than 50 µM.

`Cc1ccc(C(=O)C2=CN=C3C(=O)N(c4ccccc4)N(C)C3(C)C2=N)cc1` (stereo not drawn) displayed a TGI greater than 100 µM.

`CCOc1ccccc1N1C(=O)C(=O)C(c2nc3ccccc3o2)/C(=N\N)C1=O` (stereo not drawn) had a TGI greater than 100 µM.

Consider `Cn1cc(-c2nc(-c3c[nH]c4ccncc34)cs2)c2cc(F)ccc21`, for which the GI50 is 1.65 µM and the TGI was 3.02 µM.

Consider `COc1ccc(-c2cn(-c3cccc(C(=O)/C=C/c4ccc(O)c(OC)c4)c3)c(=O)[nH]2)cc1`, for which the GI50 is 5.83 µM and the TGI was greater than 92 µM.

`CC1=C(C(=O)Nc2ccc([N+](=O)[O-])cc2)C(c2ccccc2O)C(C(=O)Nc2ccc([N+](=O)[O-])cc2)=C(C)N1` had a TGI of 85.1 µM.

Regarding `COC12OC3CC4(C)C(=CC3OC(OC(C)C1O)C2O)CCC1C4CCC2(C)C(c3ccc(=O)oc3)CCC12O` (stereo not drawn), the TGI came out at 0.00252 µM.

Take `Nc1nc(NC2C=C(CO)C(O)C2O)c([N+](=O)[O-])c(=O)[nH]1` (stereo not drawn): the TGI is greater than 100 µM.

As to `C[n+]1c2ccccc2c(Nc2ccc(NS(=O)(=O)CCCCN=C(N)N)cc2)c2ccc(N)cc21`, the GI50 is 16.2 µM and the TGI was greater than 85.5 µM.

Molecule `CCOC(=O)C1=CC(C)(C(=O)OCC)Nc2c(nc(SC)n(C)c2=O)N1` (stereo not drawn) came in with a TGI greater than 10 µM.

In turn, `COc1cccc2c1-c1c(OC)cccc1SS2` gave a TGI greater than 100 µM.

`COC(=O)[C@@]12OC[C@]34C([C@@H](O)C1O)[C@@]1(C)CC(=O)C(O)=C(C)C1C[C@H]3OC(=O)[C@H](OC(=O)/C=C(/c1ccccc1)C(F)(F)F)[C@H]42` (stereo partly drawn) returned a TGI greater than 25 µM.

For `COc1cc(-c2csc(NC(=O)Nc3cc(C(F)(F)F)cc(C(F)(F)F)c3)n2)cc(OC)c1OC`, the GI50 is 2.82 µM and the TGI was 13.1 µM.

For `CCCCNC(=S)c1ccc(OC(=O)Nc2ccc(Cl)cc2)cc1`, the TGI is greater than 100 µM.

Turning to `O=c1cc(-c2ccccc2)[nH]c2c(Cl)cccc12`, the TGI was greater than 100 µM.

As for `COc1cc(F)cc([C@@H](CO)NC(=O)[C@@H](C)N2Cc3ccc(-c4nc(NC5CCOCC5)ncc4Cl)cc3C2=O)c1`, the GI50 was 0.0589 µM and the TGI is 97.5 µM.

For the molecule `CC(O)c1cc2c(s1)C(=O)c1scc(C(C)O)c1C2=O` (stereo not drawn), the TGI is 3.58 µM.

For the molecule `O=C1NC(=O)C(c2ccc(Cl)cc2)=C1Nc1ccc(Cl)c(C(=O)O)c1`, the GI50 is greater than 25 µM and the TGI is greater than 25 µM.

`CNC(=O)c1ccccc1[S+]1c2cccc3cccc(c23)C(=O)N1C` (stereo not drawn) had a TGI greater than 100 µM.

In the case of `COC(=O)C(Cc1ccccc1)NC(=O)c1ccc(CNC(=S)NCc2cccc(CNC(=S)NCc3ccccc3)c2)cc1` (stereo not drawn), the TGI is greater than 62.5 µM.

For `O=C1[C@H]2ON(c3ccccc3)C(c3ccccc3F)[C@H]2C(=O)N1c1ccc(Cc2ccc(N3C(=O)[C@@H]4ON(c5ccccc5)C(c5ccccc5F)[C@@H]4C3=O)cc2)cc1` (stereo partly drawn), the TGI is greater than 100 µM.

As to `COc1cc2c(cc1OC)C(CC1(O)CCCCC1)N(S(=O)(=O)c1ccc(C)cc1)CC2` (stereo not drawn), the GI50 is greater than 10 µM and the TGI was greater than 10 µM.

In turn, `CC1C2CC(CC2N)C1(C)C` (stereo not drawn) showed a TGI greater than 100 µM.

Regarding `CN1C(=O)C(=Cc2cn(Cc3ccccc3)c3ccccc23)C(=O)N(C)C1=O`, the GI50 is 30.3 µM and the TGI is greater than 100 µM.

As to `CSc1n(Cc2ccc3ccccc3c2)c(C)c[n+]1Cc1ccc2ccccc2c1`, the GI50 is 1.43 µM and the TGI worked out at 2.81 µM.

Consider `CCCCC1(N=[N+]=[N-])C(=O)C2C=CC=C3c4ccccc4N(C1=O)C32` (stereo not drawn), for which the TGI was greater than 31.6 µM.

Consider `CC(C)[NH-].CC(C)[NH-].O.O.[Cl][Pt+2][Cl]`, for which the GI50 was 32.6 µM and the TGI came out at 145 µM.

Molecule `CC1(C)O[C@H]2OC(CO)C(OS(C)(=O)=O)[C@H]2O1` (stereo partly drawn) displayed a TGI greater than 100 µM.

In turn, `CSC1(SC)N2Cc3ccccc3N=C2C1(c1ccccc1)c1ccccc1` displayed a TGI greater than 100 µM.

In the case of `Cc1ccc(C(=O)N2c3ccccc3N(C)n3cccc3C2CC(=O)O)cc1` (stereo not drawn), the TGI is greater than 100 µM.

Turning to `CCCCCCCCC(O)C#CC(N)=O` (stereo not drawn), the TGI stood at 28 µM.

`N#CCSc1c(-c2ccccc2)c(=O)n(-c2ccccc2)c(=S)n1-c1ccccc1` returned a TGI greater than 100 µM.

For the molecule `COc1cc(C=O)c(-c2cc3c(cc2C2(C)OCCS2)OCO3)c(OC)c1OC` (stereo not drawn), the TGI was greater than 136 µM.

`C[C@H](N)C(=O)N[C@@H]1[C@H]2C(=C(O)C[C@@H](O)[C@@H]2O)C(=O)O[C@@H]1C` came in with a TGI greater than 100 µM.

Regarding `N#C/C(=C\Nc1ccccn1)C(=O)c1ccco1`, the TGI is greater than 100 µM.

In turn, `O=C(Cc1ccccc1)N=Nc1c(O)[nH]c2ccccc12` came in with a TGI greater than 100 µM.

The molecule `CN1CCN(/C(N)=C(\C#N)C(=O)Nc2ccccc2)CC1` showed a TGI greater than 100 µM.

As to `COc1ccc(-c2nnc(-c3c(C)n(C)n(-c4ccccc4)c3=O)o2)cc1`, the TGI was greater than 100 µM.

Regarding `CCCCCC(O)(CCCCC)CCCCCCCCC1=C(O)c2ccccc2C(=O)C1=O`, the TGI is 79.7 µM.

On to `COc1ccc2c(c1)CCc1[nH]nc(-c3cc(OC)c(OC)c(OC)c3)c1-2`, for which the GI50 is less than 0.01 µM and the TGI turned out to be 39.5 µM.

`CCOC(=O)c1cn(CC)c2cc3c(cc2c1=O)CCS3(=O)=O` gave a TGI greater than 100 µM.

For `O=C(Cn1c(=O)oc2ccc(C(=O)c3ccccc3Cl)cc21)c1ccc([N+](=O)[O-])cc1`, the TGI was greater than 100 µM.

The molecule `C[C@]12CC[C@H](O)CC1=CC[C@@H]1[C@@H]2CC[C@]2(C)c3nc(Cl)ccc3C[C@@H]12` displayed a TGI greater than 100 µM.

`CC(=O)OCc1ccc(O)c(C=O)c1` gave a TGI greater than 100 µM.

`CO[C@H]1C[C@H](n2cc(C)c(=O)[nH]c2=O)O[C@@H]1CO` came in with a TGI greater than 100 µM.

For the molecule `O=C(/C=C/c1cccc([N+](=O)[O-])c1)c1ccc(O)c(CN2CCN(c3cc4c(cc3F)c(=O)c(C(=O)O)cn4C3CC3)CC2)c1`, the GI50 was 2.86 µM and the TGI worked out at 11.6 µM.

Turning to `COc1ccc(S(=O)(=O)Nc2ccc(-c3csc(N4C(=O)/C(=C/c5ccccc5)N=C4c4ccccc4)n3)cc2)cc1Cl`, the TGI was greater than 100 µM.

On to `C/C(=N\NC(=O)c1cccnc1)c1cccc(/C(C)=N/NC(=O)c2cccnc2)n1.CC(=O)[O-].CC(=O)[O-].[Zn+2]`, for which the TGI is greater than 100 µM.

`CC(=O)OC(C)(C)/C=C/C(=O)[C@](C)(O)[C@H]1[C@H](O)C[C@@]2(C)[C@@H]3CC=C4[C@@H](C[C@H](O)C(=O)C4(C)C)[C@]3(CO)C(=O)C[C@]12C`: the GI50 is 2.68 µM and the TGI stood at 62.5 µM.

For `CCC/C(Cl)=N\OC(=O)Nc1ccc(F)c([N+](=O)[O-])c1`, the TGI was greater than 100 µM.

Regarding `Cc1cc([N+](=O)[O-])ccc1NS(=O)(=O)c1cc(Cl)ccc1Cl`, the GI50 was 4.4 µM and the TGI is greater than 100 µM.

As to `O=C1C2CC=CCC2C(=O)C12CCc1ccccc12` (stereo not drawn), the TGI was greater than 100 µM.

In the case of `O=CC(Br)C(Br)c1ccccc1` (stereo not drawn), the GI50 was 16.8 µM and the TGI was 32.6 µM.

`C=CC[N+](CCO)(CCO)CCCCCCCCCCCCCCCCCC` came in with a TGI of 23.8 µM.

As to `Nc1nc2ccc3[nH]ncc3c2c2c1CCCC2`, the GI50 was 1.6 µM and the TGI worked out at 6.77 µM.

The molecule `c1ccc(CCN2CCN=C2Cc2ccccc2)cc1` yielded a TGI greater than 100 µM.

On to `Cc1cc2c(cc1-c1cc3c(cc1C)C(C(C)C)=C(O)C(=O)/C3=C\Nc1c(C)n(C)n(-c3ccccc3)c1=O)/C(=C/Nc1c(C)n(C)n(-c3ccccc3)c1=O)C(=O)C(O)=C2C(C)C`, for which the TGI is greater than 100 µM.
